Consider 91 molecules from PubChem BioAssay AID360 (National Center for Advancing Translational Sciences (NCATS), 2006).

About 550 (1.1%) of roughly 48,000 compounds were called active. Another 4% or so got no clear call; they are omitted. Rule as the data show it: active = potency below about 15 µM; inconclusive = mostly about 16 µM to 33 µM; inactive = weaker than that. This is one part of the list. A value given as a limit tells only on which side of the number the result lay.
Potency is read from the fitted curve at half-maximal effect.

Sequence of UniProt P04062 (P04062 whole entry, looked up): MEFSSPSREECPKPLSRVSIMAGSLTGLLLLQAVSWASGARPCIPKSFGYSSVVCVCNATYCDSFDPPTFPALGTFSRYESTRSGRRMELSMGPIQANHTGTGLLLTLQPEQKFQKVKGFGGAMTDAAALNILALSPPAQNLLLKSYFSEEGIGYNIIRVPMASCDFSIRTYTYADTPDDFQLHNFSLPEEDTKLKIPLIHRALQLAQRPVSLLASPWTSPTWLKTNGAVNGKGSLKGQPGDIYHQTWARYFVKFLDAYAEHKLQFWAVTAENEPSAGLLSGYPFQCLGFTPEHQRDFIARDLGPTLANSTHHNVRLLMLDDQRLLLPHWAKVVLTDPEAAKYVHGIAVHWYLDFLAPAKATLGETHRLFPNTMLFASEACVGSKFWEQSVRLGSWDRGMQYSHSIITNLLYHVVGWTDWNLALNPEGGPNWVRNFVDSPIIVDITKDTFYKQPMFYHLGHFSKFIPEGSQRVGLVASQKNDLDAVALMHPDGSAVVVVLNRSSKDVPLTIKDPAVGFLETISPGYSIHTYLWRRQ

The target of this experiment is Lysosomal acid glucosylceramidase (Homo sapiens) (UniProt P04062). As to the kind of experiment: Glucocerebrosidase.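 Also: the screen sought inhibitors.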 Conditions: purified enzyme, resorufin glucoside fluorescence (screen aimed at inhibitors), 20 min; series mostly up to 77 µM. Summed up:
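Wild-type enzyme at 0.2 nM final in 50mM citric acid/KH2PO4, 10mM sodium taurocholate, 0.01% tween-20, pH 5.9, with resorufin beta-D-glucopyranoside at 30 uM final. Compounds titrated, 20 min at RT, red fluorescence read; AC50 from titration.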
With `CCOC(=O)N1CCC(NC(=O)C2CCN(C(=O)N3CC(C)Oc4ccc(C)cc43)CC2)CC1` (stereo unspecified), the Potency is inactive: > 76.9 µM.
In the case of `COc1ccc(S(C)(=O)=O)cc1S(C)(=O)=O` it was inactive: > 76.9 µM; in that of `CCC1CCCCN1S(=O)(=O)c1ccc(S(=O)(=O)N2CCN(S(=O)(=O)CC)CC2)cc1` (stereo unspecified), inactive: > 76.9 µM; in that of `CCOC(=O)CN(C(=O)CSc1nnc(-c2ccc(OC)c(OC)c2)o1)c1ccc(F)cc1`, inactive: > 76.9 µM.
With `c1ccc(-c2nnc3sc(CN4CCC5(CC4)OCCO5)cn23)cc1`, the Potency was inactive: > 76.9 µM.
To `Cn1c(=O)c2c(nc(CN3CCOCC3)n2CCCO)n(C)c1=O` belongs inactive: > 76.9 µM.
For `Cc1ccc2cc(CN(Cc3cccs3)C(=O)c3ccco3)c3nnnn3c2c1C`, the Potency is inactive: > 76.9 µM.
`O=C(c1ccc(C23CC4CC(CC(C4)C2)C3)o1)N1CCOCC1`: the Potency is inactive: > 76.9 µM.
In the case of `Cn1c(Cc2ccccc2)nnc1SCC(=O)N1CCN(c2ccccc2)CC1` it was inactive: > 76.9 µM; in that of `CCOc1ccc(N2CC(O)Cn3c2nc2c3c(=O)n(CCCc3ccccc3)c(=O)n2C)cc1` (stereo unspecified), inactive: > 76.9 µM.
To `CCOC(=O)C(CC)n1cnc2sc3c(c2c1=O)CCC3` (stereo unspecified) belongs inactive: > 76.9 µM; to `O=C(COC(=O)c1ccc(S(=O)(=O)N2CCOCC2)cc1)Nc1nc(-c2ccccc2)cs1`, inactive: > 76.9 µM.
In the case of `CCOCC(=O)Nc1nc2ccc(OC)cc2s1` it was inactive: > 76.9 µM; in that of `CCOC(=O)c1sc(NCC2CCCO2)nc1C` (stereo unspecified), inactive: > 76.9 µM; in that of `CCCS(=O)(=O)N1CCCC(C(=O)NCCCOCC)C1` (stereo unspecified), inactive: > 76.9 µM.
In the case of `CCOC(=O)c1c(C)[nH]c(C)c1C(=O)COC(=O)CCOc1ccccc1OC`, the Potency is inactive: > 76.9 µM.
In the case of `Brc1ccc(-c2nc(-c3cccnc3)no2)o1`, the Potency was inactive: > 76.9 µM.
Regarding `C=C(C)Cn1c(CCNC(=O)CCC)nc2ccccc21`, the Potency is inactive: > 76.9 µM.
In the case of `COc1ccc(-n2c(SCC(=O)Nc3ccc4c(c3)OCO4)nc3ccccc3c2=O)cc1`, the Potency is inactive: > 76.9 µM.
For `Cc1cc(=O)n2nc(N3CCCC(C(=O)NCCC4=CCCCC4)C3)sc2n1` (stereo unspecified), the Potency was inactive: > 76.9 µM.
Take `Cc1cc(NC(=O)CSc2nnc(COc3cccc(C)c3C)n2C)no1`: the Potency was inactive: > 76.9 µM.
For `O=C(CN1CCN(CCC(=O)Nc2ccccc2F)CC1)Nc1ccc(F)cc1`, the Potency was inactive: > 76.9 µM.
For the molecule `c1ccc(-c2cnc(CSc3ncnc4sccc34)o2)cc1`, the Potency was inactive: > 76.9 µM.
Regarding `CNC(=O)NCCN1CCCC1=O`, the Potency was inactive: > 76.9 µM.
In the case of `CCOC(=O)N1CCN(C(=O)CSc2nnc(-c3cc(OC)cc(OC)c3)o2)CC1`, the Potency is inactive: > 76.9 µM.
Consider `O=C(Nc1ccc2nn(-c3ccccc3)nc2c1)c1cccs1`, for which the Potency was inactive: > 15.4 µM.
Take `CC1CCCN(S(=O)(=O)c2cccc(-c3cn4cccnc4n3)c2)C1` (stereo unspecified): the Potency is inactive: > 76.9 µM.
With `CC(C)(C)NCC(O)COc1ccccc1C(C)(C)C` (stereo unspecified), the Potency is inactive: > 76.9 µM.
Take `CC(=O)Nc1ccc(SCC(=O)c2cc(C)n(Cc3cccs3)c2C)cc1`: the Potency was inactive: > 76.9 µM.
Consider `O=S(=O)(c1ccc2nc(-c3ccco3)c(-c3ccco3)nc2c1)N1CCOCC1`, for which the Potency was inactive: > 76.9 µM.
Turning to `COCCCn1c(Cc2csc(Nc3cccc(Cl)c3)n2)nnc1SCC(=O)OC`, the Potency was inactive: > 76.9 µM.
On to `CCS(=O)(=O)N1CCCC(C(=O)NCCN(C)Cc2ccccc2)C1` (stereo unspecified), for which the Potency is inactive: > 76.9 µM.
In the case of `Cc1cc(NC(=O)CSc2nnc(Cc3ccccc3)o2)no1` it was inactive: > 76.9 µM.
As for `Cc1noc(/C=C/N(C)C)c1S(=O)(=O)NC1CCCCC1`, the Potency was inactive: > 76.9 µM.
For `Cn1c(SCC(=O)N2CCCc3ccccc32)nnc1-c1cccs1`, the Potency is inactive: > 76.9 µM.
To `CC(C)(C)OC(=O)N1CCC(c2c(C(=O)O)cnn2-c2ccc(Cl)cc2)CC1` belongs inactive: > 76.9 µM.
For the molecule `COc1cc(OC)c(S(=O)(=O)N2CCCCC2)cc1S(=O)(=O)N1CCCCC1`, the Potency is inactive: > 76.9 µM.
For `Cc1noc(C)c1C(=O)Nc1nnc(-c2ccccc2)s1`, the Potency was inactive: > 76.9 µM.
Regarding `CC(=O)Nc1ccc(OC(=O)C(CCS(C)(=O)=O)N2C(=O)c3ccccc3C2=O)cc1` (stereo unspecified), the Potency was inactive: > 76.9 µM.
In the case of `CCn1c(SCC(=O)Nc2cc(C)on2)nc2sc3c(c2c1=O)CCCC3` it was inactive: > 76.9 µM; in that of `Nc1nc(-c2ccco2)nn1C(=O)c1cccnc1`, inactive: > 76.9 µM.
As for `Cn1ncc(Br)c1C(=O)Nc1ccc(Cl)cn1`, the Potency is inactive: > 76.9 µM.
Take `CCCc1ccc(S(=O)(=O)NCCc2ccncc2)cc1`: the Potency was active: 7.13 µM.
On to `CCn1c(SCC(=O)NCCc2ccc(OC)c(OC)c2)nc2c1c(=O)n(C)c(=O)n2C`, for which the Potency was inactive: > 76.9 µM.
To `COc1ccc(OCC(=O)N2CCN(C(=O)c3cccs3)CC2)cc1` belongs inactive: > 76.9 µM; to `CCOC(=O)NCc1ccc2c(c1)OCO2`, inactive: > 76.9 µM; to `O=C(NC1CCCCC1)C1CCCN(c2nnnn2-c2ccccc2)C1` (stereo unspecified), inactive: > 76.9 µM.
Take `COc1ccc(OC)c(C(c2nnnn2CCc2ccccc2)N2CCN(c3ccccc3)CC2)c1` (stereo unspecified): the Potency was inactive: > 76.9 µM.
For the molecule `Cc1cc(OCc2nn[nH]n2)c2c(C)c(Cc3ccccc3)c(=O)oc2c1`, the Potency entry is “inactive”.
On to `Cc1cccc2cc(C(c3nnnn3CC3CCCO3)N3CCOCC3)c(=O)[nH]c12` (stereo unspecified), for which the Potency was inactive: > 76.9 µM.
As to `Cn1nnnc1SCC(=O)Nc1ccc(N2CCOCC2)cc1`, the Potency was inactive: > 76.9 µM.
On to `O=C(CCN1C(=O)c2ccccc2S1(=O)=O)N1CCN(c2ccccc2)CC1`, for which the Potency was inactive: > 76.9 µM.
In the case of `Cc1nc(-n2nnc3ccccc32)c2c3c(sc2n1)CCCC3`, the Potency was inactive: > 76.9 µM.
Consider `O=C(c1ccco1)N1CCN(C(=O)c2cccc3c2C(=O)N(C2CCCCC2)C3)CC1`, for which the Potency was inactive: > 76.9 µM.
Turning to `CC1CCCCC1NC(=O)CCn1c(=O)oc2ccccc21` (stereo unspecified), the Potency is inactive: > 76.9 µM.
For the molecule `CCn1c(SCC(=O)C(C)(C)C)nnc1-c1cccnc1`, the Potency is inactive: > 76.9 µM.
Consider `CCc1cc2c(N[C@@H](C)C(=O)O)ncnc2s1`, for which the Potency is inactive: > 76.9 µM.
For `c1ccc2c(c1)nc1sccn12`, the Potency was inactive: > 76.9 µM.
Take `CC(C)CNC(=O)CSc1nnc(-c2ccccn2)n1Cc1ccccc1`: the Potency is inactive: > 76.9 µM.
With `CCOc1ccccc1C(=O)NC(C)c1ccc2c(c1)OCO2` (stereo unspecified), the Potency is inactive: > 76.9 µM.
`CCCOc1ccc(C2C(C(=O)c3ccco3)=C(O)C(=O)N2CCN2CCOCC2)cc1OC` (stereo unspecified): the Potency is inactive: > 76.9 µM.
In the case of `COc1ccc(NC(=O)CCC2CCCC2)cc1OC`, the Potency is inactive: > 76.9 µM.
With `COC(=O)C1=C(C)N(c2cccc3ccccc23)C(=O)C1`, the Potency is inactive: > 76.9 µM.
To `COc1ccc(CCN2C(=O)CC(N3CCOCC3)C2=O)cc1` (stereo unspecified) belongs inactive: > 76.9 µM; to `O=C(O)c1ccc(CSCc2c(F)cccc2Cl)o1`, inactive: > 76.9 µM.
To `CN(C)/C=N/c1c(C#N)cnn1-c1ncnc2sc(-c3ccccc3)cc12` belongs inactive: > 76.9 µM; to `O=C(O)c1cccc(S(=O)(=O)N2CCOCC2)c1`, inactive: > 76.9 µM.
With `O=S(=O)(c1ccc2nc(COc3ccccc3)[nH]c2c1)N1CCOCC1`, the Potency was inactive: > 76.9 µM.
For `C=CCn1c(NCCc2ccccc2)nc2c1c(=O)n(C)c(=O)n2C`, the Potency was inactive: > 76.9 µM.
In the case of `CN(Cc1c(F)cccc1Cl)c1nnnn1-c1ccccc1` it was inactive: > 76.9 µM.
On to `Cc1ccc2nc3c(c(N)c2c1)CCN3c1ccccc1`, for which the Potency entry is “inactive”.
To `COc1cc2c(cc1NC(=O)CN1CCN(S(=O)(=O)c3ccc(F)cc3)CC1)oc1ccccc12` belongs inactive: > 76.9 µM; to `Cc1cccc(NC(=O)c2cc3ccccc3c(=O)o2)n1`, inactive: > 76.9 µM.
`CC(C)Cn1c(-c2ccccc2F)n[nH]c1=S`: the Potency is inactive: > 76.9 µM.
`O=C(C1CCN(S(=O)(=O)c2cnc[nH]2)CC1)N1CCN(Cc2ccc3c(c2)OCO3)CC1`: the Potency was inactive: > 76.9 µM.
On to `CCCC1=C(C(=O)OCC)C(c2ccc(O)cc2)n2ncnc2N1` (stereo unspecified), for which the Potency is inactive: > 76.9 µM.
Consider `CC(C)OCCCNC(=O)c1sc(=S)n(C)c1N`, for which the Potency is inactive: > 76.9 µM.
In the case of `O=C(c1cc2c(s1)CCCC2)N1CCN(Cc2ccc3c(c2)OCO3)CC1` it was inactive: > 76.9 µM; in that of `O=C(CC1CCCC1)Nc1nc2ccccc2[nH]1`, inactive: > 76.9 µM.
As to `CCn1c(=O)cc(OCC(=O)N(C)C2CCCCC2)c2ccccc21`, the Potency is inactive: > 76.9 µM.
`COc1cccc(NC(=O)CSc2nnc(-c3cccc(OC(C)C)c3)n2N)c1`: the Potency is inactive: > 76.9 µM.
To `COc1ccc(C(=O)CSc2nnc(CNc3nc(-c4ccccc4)cs3)n2C)cc1` belongs “inactive”.
As for `COC(=O)c1cc(NC(=O)c2ccoc2C)cc(C(=O)OC)c1`, the Potency is inactive: > 76.9 µM.
In the case of `COc1cc(S(=O)(=O)N(Cc2ccc(C)cc2)C2CCCCC2)ccc1-n1cnnn1`, the Potency was inactive: > 76.9 µM.
Turning to `COc1cccc2cc(-c3csc(CCn4nc(C)cc4C)n3)c(=O)oc12`, the Potency was inactive: > 76.9 µM.
As for `CC1CCN(C(=O)CSc2nnc(-c3ccc(S(=O)(=O)N4CCOCC4)cc3)n2C)CC1`, the Potency is inactive: > 76.9 µM.
`COC(=O)C1=[N+]([O-])OC(C(=O)OC)C1c1c[nH]c2ccccc12` (stereo unspecified): the Potency is inactive: > 76.9 µM.
Consider `CC(C)(C)c1[nH]nc2c1C(c1ccncc1)C(C#N)=C(N)O2` (stereo unspecified), for which the Potency is inactive: > 76.9 µM.
On to `CNC(=O)c1cc2cc(Cl)cc(OC)c2oc1=O`, for which the Potency was inactive: > 76.9 µM.
To `c1ccc2nc3c(nc2c1)sc1nc2ccccc2n13` belongs inactive: > 76.9 µM.
In the case of `COc1ccc(-c2noc(C3CCCN(S(=O)(=O)c4cccc(Cl)c4)C3)n2)cc1OC` (stereo unspecified) it was inactive: > 76.9 µM.
